{"source": "the supplement of paper PMC8728848", "binders": {"B1": {"name": "Epa22 (Candida glabrata) (protein)", "chain": "MGSSHHHHHHSSGLVPRGSHMKRALSSQNPFGYPIGCSPQSTNVIPGLTMELYSYPIVSGTPPNCYDASYVDPEYPRTGYLKRKMIGKSTGVTGSLNYKFSVEKACMVKYGNLPAGYNYNEPLTVSNFTMLLYGYFKPQTSGIHTFFVNADDLLYINFGAGNAFDCCKREDSKFKLGEYVAYDIWHVDSSKNKVSLNLEKDVYYPIRMFFNNIGKDSSLDLSFSVNGAVEHITDFSGYLYSVPDQPDACPAPIGYDTTCK"}}, "assay_in_all_cases": "glycan array binding signal (z-score within array); higher = stronger binding", "conditions_in_all_cases": "glycan notation: IUPAC condensed, linker removed", "key": {"[1]": {"biological_target": "Gal(b1-3)GlcNAc(b1-6)[Gal(b1-3)]GalNAc", "procedure,_shortened": "(§1)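 Glycan array binding is given as a within-array Z-score, which can be read as non-binding when negative. The arrays, 3228 of them, came from the Consortium for Functional Glycomics database and were retained only where the protein sequence was available. Z-scores were averaged across arrays of the same protein sequence at different concentrations or buffers and across linkers.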"}, "Gal(b1-3)GlcNAc6S": {"biological_target": "Gal(b1-3)GlcNAc6S", "procedure,_shortened": "as §1"}, "[2]": {"biological_target": "Gal(b1-3)[Fuc(a1-4)]GlcNAc", "procedure,_shortened": "as §1"}, "[3]": {"biological_target": "Gal(b1-3)[Fuc(a1-4)]GlcNAc(b1-2)Man", "procedure,_shortened": "as §1"}, "[4]": {"biological_target": "Gal(b1-3)[Fuc(a1-4)]GlcNAc(b1-2)Man(a1-3)[Gal(b1-3)[Fuc(a1-4)]GlcNAc(b1-2)Man(a1-6)]Man(b1-4)GlcNAc(b1-4)[Fuc(a1-6)]GlcNAc", "procedure,_shortened": "as §1"}, "[5]": {"biological_target": "Gal(b1-3)[Fuc(a1-4)]GlcNAc(b1-3)Gal(b1-3)[Fuc(a1-4)]GlcNAc", "procedure,_shortened": "as §1"}, "[6]": {"biological_target": "Gal(b1-3)[Fuc(a1-4)]GlcNAc(b1-3)Gal(b1-4)[Fuc(a1-3)]GlcNAc", "procedure,_shortened": "as §1"}, "[7]": {"biological_target": "Gal(b1-3)[Fuc(a1-4)]GlcNAc(b1-6)GalNAc", "procedure,_shortened": "as §1"}, "[8]": {"biological_target": "Gal(b1-3)[GlcNAc(b1-6)]GalNAc", "procedure,_shortened": "as §1"}, "[9]": {"biological_target": "Gal(b1-3)[Neu5Ac(a2-6)]GalNAc", "procedure,_shortened": "as §1"}, "[10]": {"biological_target": "Gal(b1-3)[Neu5Ac(a2-6)]GlcNAc(b1-4)Gal(b1-4)Glc", "procedure,_shortened": "as §1"}, "[11]": {"biological_target": "Gal(b1-3)[Neu5Ac(b2-6)]GalNAc", "procedure,_shortened": "as §1"}, "Gal(b1-4)Gal": {"biological_target": "Gal(b1-4)Gal", "procedure,_shortened": "as §1"}, "[12]": {"biological_target": "Gal(b1-4)GalNAc(a1-3)[Fuc(a1-2)]Gal(b1-4)GlcNAc", "procedure,_shortened": "as §1"}, "[13]": {"biological_target": "Gal(b1-4)GalNAc(b1-3)[Fuc(a1-2)]Gal(b1-4)GlcNAc", "procedure,_shortened": "as §1"}, "Gal(b1-4)Glc": {"biological_target": "Gal(b1-4)Glc", "procedure,_shortened": "as §1"}, "Gal(b1-4)Glc6S": {"biological_target": "Gal(b1-4)Glc6S", "procedure,_shortened": "as §1"}, "Gal(b1-4)GlcNAc": {"biological_target": "Gal(b1-4)GlcNAc", "procedure,_shortened": "as §1"}, "[14]": {"biological_target": "Gal(b1-4)GlcNAc(a1-6)Gal(b1-4)GlcNAc", "procedure,_shortened": "as §1"}, "Gal(b1-4)GlcNAc(b1-2)Man": {"biological_target": "Gal(b1-4)GlcNAc(b1-2)Man", "procedure,_shortened": "as §1"}, "[15]": {"biological_target": "Gal(b1-4)GlcNAc(b1-2)Man(a1-3)Man(b1-4)GlcNAc(b1-4)GlcNAc", "procedure,_shortened": "as §1"}, "[16]": {"biological_target": "Gal(b1-4)GlcNAc(b1-2)Man(a1-3)[Gal(b1-4)GlcNAc(b1-2)Man(a1-6)]Man(b1-4)GlcNAc(b1-4)GlcNAc", "procedure,_shortened": "as §1"}, "[17]": {"biological_target": "Gal(b1-4)GlcNAc(b1-2)Man(a1-3)[Gal(b1-4)GlcNAc(b1-2)Man(a1-6)]Man(b1-4)GlcNAc(b1-4)[Fuc(a1-6)]GlcNAc", "procedure,_shortened": "as §1"}, "[18]": {"biological_target": "Gal(b1-4)GlcNAc(b1-2)Man(a1-3)[Gal(b1-4)GlcNAc(b1-2)Man(a1-6)][Gal(b1-4)GlcNAc(b1-4)]Man(b1-4)GlcNAc(b1-4)[Fuc(a1-6)]GlcNAc", "procedure,_shortened": "as §1"}, "[19]": {"biological_target": "Gal(b1-4)GlcNAc(b1-2)Man(a1-3)[Gal(b1-4)GlcNAc(b1-2)Man(a1-6)][GlcNAc(b1-4)]Man(b1-4)GlcNAc(b1-4)[Fuc(a1-6)]GlcNAc", "procedure,_shortened": "as §1"}, "[20]": {"biological_target": "Gal(b1-4)GlcNAc(b1-2)Man(a1-3)[GlcNAc(b1-2)Man(a1-6)]Man(b1-4)GlcNAc(b1-4)GlcNAc", "procedure,_shortened": "as §1"}, "[21]": {"biological_target": "Gal(b1-4)GlcNAc(b1-2)Man(a1-3)[GlcNAc(b1-4)][Gal(b1-4)GlcNAc(b1-2)Man(a1-6)]Man(b1-4)GlcNAc(b1-4)GlcNAc", "procedure,_shortened": "as §1"}, "[22]": {"biological_target": "Gal(b1-4)GlcNAc(b1-2)Man(a1-3)[Man(a1-6)]Man(b1-4)GlcNAc(b1-4)GlcNAc", "procedure,_shortened": "as §1"}, "[23]": {"biological_target": "Gal(b1-4)GlcNAc(b1-2)Man(a1-6)Man(b1-4)GlcNAc(b1-4)GlcNAc", "procedure,_shortened": "as §1"}, "[24]": {"biological_target": "Gal(b1-4)GlcNAc(b1-2)Man(a1-6)[GlcNAc(b1-2)Man(a1-3)]Man(b1-4)GlcNAc(b1-4)GlcNAc", "procedure,_shortened": "as §1"}, "[25]": {"biological_target": "Gal(b1-4)GlcNAc(b1-2)Man(a1-6)[Man(a1-3)]Man(b1-4)GlcNAc(b1-4)GlcNAc", "procedure,_shortened": "as §1"}, "[26]": {"biological_target": "Gal(b1-4)GlcNAc(b1-2)[Gal(b1-4)GlcNAc(b1-4)]Man(a1-3)[Gal(b1-4)GlcNAc(b1-2)Man(a1-6)]Man(b1-4)GlcNAc(b1-4)GlcNAc", "procedure,_shortened": "as §1"}, "[27]": {"biological_target": "Gal(b1-4)GlcNAc(b1-2)[Gal(b1-4)GlcNAc(b1-4)]Man(a1-3)[Gal(b1-4)GlcNAc(b1-2)[Gal(b1-4)GlcNAc(b1-6)]Man(a1-6)]Man(b1-4)GlcNAc(b1-4)GlcNAc", "procedure,_shortened": "as §1"}, "[28]": {"biological_target": "Gal(b1-4)GlcNAc(b1-2)[Gal(b1-4)GlcNAc(b1-4)]Man(a1-3)[GlcNAc(b1-4)][Gal(b1-4)GlcNAc(b1-2)Man(a1-6)]Man(b1-4)GlcNAc(b1-4)GlcNAc", "procedure,_shortened": "as §1"}, "[29]": {"biological_target": "Gal(b1-4)GlcNAc(b1-2)[Gal(b1-4)GlcNAc(b1-4)]Man(a1-3)[GlcNAc(b1-4)][Gal(b1-4)GlcNAc(b1-2)[Gal(b1-4)GlcNAc(b1-6)]Man(a1-6)]Man(b1-4)GlcNAc(b1-4)GlcNAc", "procedure,_shortened": "as §1"}, "[30]": {"biological_target": "Gal(b1-4)GlcNAc(b1-2)[Gal(b1-4)GlcNAc(b1-6)]Man(a1-6)[Gal(b1-4)GlcNAc(b1-2)Man(a1-3)]Man(b1-4)GlcNAc(b1-4)GlcNAc", "procedure,_shortened": "as §1"}, "[31]": {"biological_target": "Gal(b1-4)GlcNAc(b1-2)[Gal(b1-4)GlcNAc(b1-6)]Man(a1-6)[Gal(b1-4)GlcNAc(b1-2)Man(a1-3)]Man(b1-4)GlcNAc(b1-4)[Fuc(a1-6)]GlcNAc", "procedure,_shortened": "as §1"}}, "note": "The other results are listed elsewhere or left out.", "data": [{"binder": "B1", "values": [{"measurement": "glycan array binding signal (z-score)", "setting": "[1]", "value": 0.077}, {"measurement": "glycan array binding signal (z-score)", "setting": "Gal(b1-3)GlcNAc6S", "value": 3}, {"measurement": "glycan array binding signal (z-score)", "setting": "[2]", "value": -0.364}, {"measurement": "glycan array binding signal (z-score)", "setting": "[3]", "value": -0.09}, {"measurement": "glycan array binding signal (z-score)", "setting": "[4]", "value": -0.319}, {"measurement": "glycan array binding signal (z-score)", "setting": "[5]", "value": -0.302}, {"measurement": "glycan array binding signal (z-score)", "setting": "[6]", "value": -0.299}, {"measurement": "glycan array binding signal (z-score)", "setting": "[7]", "value": -0.258}, {"measurement": "glycan array binding signal (z-score)", "setting": "[8]", "value": -0.179}, {"measurement": "glycan array binding signal (z-score)", "setting": "[9]", "value": -0.111}, {"measurement": "glycan array binding signal (z-score)", "setting": "[10]", "value": 0.033}, {"measurement": "glycan array binding signal (z-score)", "setting": "[11]", "value": -0.402}, {"measurement": "glycan array binding signal (z-score)", "setting": "Gal(b1-4)Gal", "value": -0.114}, {"measurement": "glycan array binding signal (z-score)", "setting": "[12]", "value": -0.29}, {"measurement": "glycan array binding signal (z-score)", "setting": "[13]", "value": -0.224}, {"measurement": "glycan array binding signal (z-score)", "setting": "Gal(b1-4)Glc", "value": 1.07}, {"measurement": "glycan array binding signal (z-score)", "setting": "Gal(b1-4)Glc6S", "value": 2.16}, {"measurement": "glycan array binding signal (z-score)", "setting": "Gal(b1-4)GlcNAc", "value": 0.616}, {"measurement": "glycan array binding signal (z-score)", "setting": "[14]", "value": 2.37}, {"measurement": "glycan array binding signal (z-score)", "setting": "Gal(b1-4)GlcNAc(b1-2)Man", "value": -0.267}, {"measurement": "glycan array binding signal (z-score)", "setting": "[15]", "value": -0.308}, {"measurement": "glycan array binding signal (z-score)", "setting": "[16]", "value": -0.382}, {"measurement": "glycan array binding signal (z-score)", "setting": "[17]", "value": -0.365}, {"measurement": "glycan array binding signal (z-score)", "setting": "[18]", "value": -0.368}, {"measurement": "glycan array binding signal (z-score)", "setting": "[19]", "value": -0.328}, {"measurement": "glycan array binding signal (z-score)", "setting": "[20]", "value": -0.309}, {"measurement": "glycan array binding signal (z-score)", "setting": "[21]", "value": -0.367}, {"measurement": "glycan array binding signal (z-score)", "setting": "[22]", "value": -0.194}, {"measurement": "glycan array binding signal (z-score)", "setting": "[23]", "value": -0.185}, {"measurement": "glycan array binding signal (z-score)", "setting": "[24]", "value": -0.365}, {"measurement": "glycan array binding signal (z-score)", "setting": "[25]", "value": -0.385}, {"measurement": "glycan array binding signal (z-score)", "setting": "[26]", "value": -0.298}, {"measurement": "glycan array binding signal (z-score)", "setting": "[27]", "value": -0.321}, {"measurement": "glycan array binding signal (z-score)", "setting": "[28]", "value": -0.298}, {"measurement": "glycan array binding signal (z-score)", "setting": "[29]", "value": -0.372}, {"measurement": "glycan array binding signal (z-score)", "setting": "[30]", "value": -0.087}, {"measurement": "glycan array binding signal (z-score)", "setting": "[31]", "value": -0.331}]}]}
